From the supplement of paper PMC8728848
The list shows a part of the results.

How the values were obtained:
Assay in all cases: glycan array binding signal (z-score within array); higher = stronger binding
Conditions in all cases: glycan notation: IUPAC condensed, linker removed
Fuc(a1-2)Gal = target: Fuc(a1-2)Gal
In short: (§1)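 Columns mapping to the same glycan were averaged after glycan names were converted to IUPAC-condensed notation. The data come from 3228 arrays in the Consortium for Functional Glycomics database, limited to those with an available protein sequence. Binding is reported as a within-array Z-score averaged across arrays of one protein sequence and across linkers.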

Fuc(a1-2)Gal(b1-3)GalNAc = target: Fuc(a1-2)Gal(b1-3)GalNAc
In short: as §1

[1] = target: Fuc(a1-2)Gal(b1-3)GalNAc(a1-3)[Fuc(a1-2)]Gal(b1-4)Glc
In short: as §1

[2] = target: Fuc(a1-2)Gal(b1-3)GalNAc(a1-3)[Fuc(a1-2)]Gal(b1-4)GlcNAc
In short: as §1

[3] = target: Fuc(a1-2)Gal(b1-3)GalNAc(b1-3)Gal
In short: as §1

[4] = target: Fuc(a1-2)Gal(b1-3)GalNAc(b1-3)Gal(a1-4)Gal(b1-4)Glc
In short: as §1

[5] = target: Fuc(a1-2)Gal(b1-3)GalNAc(b1-4)[Neu5Ac(a2-3)]Gal(b1-4)Glc
In short: as §1

Fuc(a1-2)Gal(b1-3)GlcNAc = target: Fuc(a1-2)Gal(b1-3)GlcNAc
In short: as §1

[6] = target: Fuc(a1-2)Gal(b1-3)GlcNAc(b1-2)Man(a1-3)[Fuc(a1-2)Gal(b1-3)GlcNAc(b1-2)Man(a1-6)]Man(b1-4)GlcNAc(b1-4)GlcNAc
In short: as §1

[7] = target: Fuc(a1-2)Gal(b1-3)GlcNAc(b1-3)Gal(b1-4)Glc
In short: as §1

[8] = target: Fuc(a1-2)Gal(b1-3)GlcNAc(b1-3)[Fuc(a1-3)[Gal(b1-4)]GlcNAc(b1-6)]Gal(b1-4)Glc
In short: as §1

[9] = target: Fuc(a1-2)Gal(b1-3)[Fuc(a1-4)]GlcNAc
In short: as §1

[10] = target: Fuc(a1-2)Gal(b1-3)[Fuc(a1-4)]GlcNAc(b1-2)Man(a1-3)[Fuc(a1-2)Gal(b1-3)[Fuc(a1-4)]GlcNAc(b1-2)Man(a1-6)]Man(b1-4)GlcNAc(b1-4)GlcNAc
In short: as §1

[11] = target: Fuc(a1-2)Gal(b1-3)[Fuc(a1-4)]GlcNAc(b1-3)[Fuc(a1-3)[Gal(b1-4)]GlcNAc(b1-6)]Gal(b1-4)Glc
In short: as §1

[12] = target: Fuc(a1-2)Gal(b1-3)[Fuc(a1-4)]GlcNAc(b1-3)[Gal(b1-4)GlcNAc(b1-6)]Gal(b1-4)Glc
In short: as §1

Fuc(a1-2)Gal(b1-4)Glc = target: Fuc(a1-2)Gal(b1-4)Glc
In short: as §1

Fuc(a1-2)Gal(b1-4)Glc6S = target: Fuc(a1-2)Gal(b1-4)Glc6S
In short: as §1

Fuc(a1-2)Gal(b1-4)GlcNAc = target: Fuc(a1-2)Gal(b1-4)GlcNAc
In short: as §1

[13] = target: Fuc(a1-2)Gal(b1-4)GlcNAc(b1-2)Man(a1-3)[Fuc(a1-2)Gal(b1-4)GlcNAc(b1-2)Man(a1-6)]Man(b1-4)GlcNAc(b1-4)GlcNAc
In short: as §1

[14] = target: Fuc(a1-2)Gal(b1-4)GlcNAc(b1-3)Gal(b1-4)GlcNAc
In short: as §1

[15] = target: Fuc(a1-2)Gal(b1-4)GlcNAc(b1-3)Gal(b1-4)GlcNAc(b1-3)Gal(b1-4)GlcNAc
In short: as §1

[16] = target: Fuc(a1-2)Gal(b1-4)GlcNAc(b1-3)GalNAc
In short: as §1

[17] = target: Fuc(a1-2)Gal(b1-4)GlcNAc6S
In short: as §1

[18] = target: Fuc(a1-2)Gal(b1-4)[Fuc(a1-3)]GlcNAc
In short: as §1

[19] = target: Fuc(a1-2)Gal(b1-4)[Fuc(a1-3)]GlcNAc(b1-2)Man(a1-3)[Fuc(a1-2)Gal(b1-4)[Fuc(a1-3)]GlcNAc(b1-2)Man(a1-6)]Man(b1-4)GlcNAc(b1-4)GlcNAc
In short: as §1

[20] = target: Fuc(a1-2)Gal(b1-4)[Fuc(a1-3)]GlcNAc(b1-3)Gal(b1-4)[Fuc(a1-3)]GlcNAc
In short: as §1

[21] = target: Fuc(a1-2)Gal(b1-4)[Fuc(a1-3)]GlcNAc(b1-3)Gal(b1-4)[Fuc(a1-3)]GlcNAc(b1-3)Gal(b1-4)[Fuc(a1-3)]GlcNAc
In short: as §1

Fuc(a1-2)Gal6S(b1-4)Glc = target: Fuc(a1-2)Gal6S(b1-4)Glc
In short: as §1

[22] = target: Fuc(a1-2)Gal6S(b1-4)Glc6S
In short: as §1

[23] = target: Fuc(a1-2)Gal6S(b1-4)GlcNAc
In short: as §1

B1: ZG-16 (Homo sapiens), O60844 (protein)
chain: IQARSSSYSGEYGSGGGKRFSHSGNQLDGPITALRVRVNTYYIVGLQVRYGKVWSDYVGGRNGDLEEIFLHPGESVIQVSGKYKWYLKKLVFVTDKGRYLSFGKDSGTSFNAVPLHPNTVLRFISGRSGSLIDAIGLHWDVYPTSCSRCSRGSDDDDKAEPRGPTIKPCPPCKCPAPNLLGGPSVFIFPPKIKDVLMISLSPIVTCVVVDVSEDDPDVQISWFVNNVEVHTAQTQTHREDYNSTLRVVSALPIQHQDWMSGKEFKCKVNNKDLPAPIERTISKPKGSVRAPQVYVLPPPEEEMTKKQVTLTCMVTDFMPEDIYVEWTNNGKTELNYKNTEPVLDSDGSYFMYSKLRVEKKNWVERNSYSCSVVHEGLHNHHTTKSFSRTPGKRTYHHHHHHARKLTR
glycan array binding signal (z-score) (Fuc(a1-2)Gal): -0.186 | glycan array binding signal (z-score) (Fuc(a1-2)Gal(b1-3)GalNAc): -0.224 | glycan array binding signal (z-score) [1]: -0.213 | glycan array binding signal (z-score) [2]: -0.019 | glycan array binding signal (z-score) [3]: 0.063 | glycan array binding signal (z-score) [4]: -0.106 | glycan array binding signal (z-score) [5]: -0.187 | glycan array binding signal (z-score) (Fuc(a1-2)Gal(b1-3)GlcNAc): 1.33 | glycan array binding signal (z-score) [6]: -0.142 | glycan array binding signal (z-score) [7]: -0.175 | glycan array binding signal (z-score) [8]: -0.227 | glycan array binding signal (z-score) [9]: -0.221 | glycan array binding signal (z-score) [10]: -0.157 | glycan array binding signal (z-score) [11]: -0.196 | glycan array binding signal (z-score) [12]: -0.183 | glycan array binding signal (z-score) (Fuc(a1-2)Gal(b1-4)Glc): -0.214 | glycan array binding signal (z-score) (Fuc(a1-2)Gal(b1-4)Glc6S): -0.208 | glycan array binding signal (z-score) (Fuc(a1-2)Gal(b1-4)GlcNAc): -0.172 | glycan array binding signal (z-score) [13]: -0.185 | glycan array binding signal (z-score) [14]: -0.166 | glycan array binding signal (z-score) [15]: -0.215 | glycan array binding signal (z-score) [16]: -0.124 | glycan array binding signal (z-score) [17]: -0.185 | glycan array binding signal (z-score) [18]: -0.209 | glycan array binding signal (z-score) [19]: -0.181 | glycan array binding signal (z-score) [20]: -0.197 | glycan array binding signal (z-score) [21]: -0.174 | glycan array binding signal (z-score) (Fuc(a1-2)Gal6S(b1-4)Glc): -0.218 | glycan array binding signal (z-score) [22]: -0.171 | glycan array binding signal (z-score) [23]: -0.224
